The supplement of paper PMC10126150
Sequences with one replicate were seen in a single cluster, so their values are uncertain.

Tested on: ATP
Experiment: switch fluorescence ratio, 500 uM ATP over buffer (Cy3 cluster intensity, sum of 5 cycles each) (fold (ratio)); higher = stronger signal-on switching upon ATP binding; sequences stand for … in TCGTCGGCAGCGTCAGATGTGTATAAGAGACAGTTTTTTTTTTTTTTTTTTTTTTTTT…TC
Conditions: aptamer strand: ATP DNA aptamer (quencher-CACCTGGGGGAGTATTGCGGAGGAAGG + anchor), 100 nM annealed; ATP concentration: 500 uM; one replicate
How it was run: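 Five buffer/ATP imaging cycles were run on Cy3-labelled switching-strand clusters on a modified Illumina MiSeq flow-cell, with NaOH stripping and re-annealing between cycles. In each cycle, clusters annealed to 100 nM quencher-labelled ATP aptamer were imaged in selection buffer, then after 15 min with 500 uM ATP at 22 °C. Per cluster, the fluorescence ratio is summed target-cycle over summed buffer-cycle Cy3 intensity, averaged per switch-domain sequence. Only clusters within 100-1000 RFU were kept.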
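Note: ATP exposure 15 min at 22 °C before imaging.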

Row | Sequence | switch fluorescence ratio
1 | CCACATGAGG | 0.996
2 | CCACATGGCA | 1.01
3 | CCACATTCGG | 0.992
4 | CCACATTGAC | 1.37
5 | CCACCACCGA | 1.13
6 | CCACCAGGTT | 4.1
7 | CCACCCAGAT | 1.28
8 | CCACCCGGCT | 0.964
9 | CCACCTGTTG | 1.17
10 | CCACGAGTTT | 0.99
11 | CCACGATGGC | 1.24
12 | CCACGCACAT | 1.67
13 | CCACGCTGAA | 1.46
14 | CCACGGACAT | 1.48
15 | CCACGGATTG | 1.03
16 | CCACGTAAGG | 1.3
17 | CCACGTAGTT | 1.02
18 | CCACTAAAGA | 1.07
19 | CCACTCGAAA | 1.28
20 | CCACTTAAAG | 1.01
21 | CCAGAACTGC | 0.98
22 | CCAGAAGGGC | 1.07
23 | CCAGAATCGC | 1.04
24 | CCAGACAGAT | 1.03
25 | CCAGACCTCA | 1.03

Row | Sequence | switch fluorescence ratio
26 | CCAGACTCTT | 1.02
27 | CCAGAGCGCA | 1.96
28 | CCAGAGCGTG | 1.01
29 | CCAGAGGCGC | 1.04
30 | CCAGATCGAT | 1.06
31 | CCAGCCAAAA | 1.18
32 | CCAGCGTTGG | 1
33 | CCAGGAAATG | 1.04
34 | CCAGGAG | 1.18
35 | CCAGGATTGT | 1
36 | CCAGGCAGGT | 1.11
37 | CCAGGCGCC | 0.998
38 | CCAGGGAACC | 1.01
39 | CCAGGGCAAG | 1.39
40 | CCAGGGGAGA | 1
41 | CCAGGGTCTC | 1.03
42 | CCAGGTGAGT | 4.92
43 | CCAGTACCAT | 0.94
44 | CCAGTATCTA | 0.985
45 | CCAGTCGGAT | 1.03
46 | CCAGTGCAAG | 2.25
47 | CCAGTGTGAA | 1.12
48 | CCAGTTAAAA | 1.03
49 | CCAGTTACAC | 0.996
50 | CCAGTTCTT | 0.95

Row | Sequence | switch fluorescence ratio
51 | CCAGTTGAGG | 0.97
52 | CCAGTTTTTG | 0.978
53 | CCATAAAATC | 0.997
54 | CCATAACGC | 1.14
55 | CCATAAGATA | 1.01
56 | CCATACTGAG | 0.992
57 | CCATAGTGGG | 1.01
58 | CCATATGTAT | 0.987
59 | CCATATTACC | 1.02
60 | CCATCAAAGG | 1.04
61 | CCATCACTAC | 1.86
62 | CCATCACTTG | 0.986
63 | CCATCGATGC | 1.1
64 | CCATCTAGGG | 0.995
65 | CCATCTCGTA | 0.969
66 | CCATCTTTAC | 1.18
67 | CCATGAAACA | 1.01
68 | CCATGAAGGT | 1.04
69 | CCATGAATGC | 1.53
70 | CCATGAGAGC | 1.05
71 | CCATGAGGTT | 0.986
72 | CCATGATACA | 1.01
73 | CCATGCTCCG | 1.35
74 | CCATGGCTGA | 0.999
75 | CCATGGGTG | 1.56

Row | Sequence | switch fluorescence ratio
76 | CCATGGTTG | 1.04
77 | CCATGTACCA | 1.08
78 | CCATTAACCG | 1
79 | CCATTCAGTT | 1.04
80 | CCATTCGGCG | 1.02
81 | CCATTGACT | 1.06
82 | CCATTTCTCA | 0.956
83 | CCCAACTATC | 1.16
84 | CCCAAGAGGC | 1.02
85 | CCCAAGCATG | 1.5
86 | CCCAATGTCC | 1.78
87 | CCCAATTAAA | 1.02
88 | CCCAGAGTAG | 1.1
89 | CCCAGGATT | 1.13
90 | CCCAGGCGC | 1.88
91 | CCCAGGGCGT | 1.03
92 | CCCAGGTGGG | 4.61
93 | CCCAGTAACG | 1.02
94 | CCCAGTAGAC | 2.32
95 | CCCAGTGCGA | 1.93
96 | CCCATACTTT | 1.04
97 | CCCATTTGAG | 1.05
98 | CCCCAAAAAT | 1.67
99 | CCCCATCGAT | 1.03
100 | CCCCATGGGT | 6.17
